{"source": "the supplement of paper PMC3334620", "note": "The full ranking holds about 33,000 sequences; the median of “E-score (-0.5 to 0.5)” is about -0.053, and the highest 2% start at about 0.37. The list shows a part of the results."}
{"molecular_target": "Hap1 (UniProt P0CE41)", "sequence (P0CE41 whole entry, the tested form may be a part)": "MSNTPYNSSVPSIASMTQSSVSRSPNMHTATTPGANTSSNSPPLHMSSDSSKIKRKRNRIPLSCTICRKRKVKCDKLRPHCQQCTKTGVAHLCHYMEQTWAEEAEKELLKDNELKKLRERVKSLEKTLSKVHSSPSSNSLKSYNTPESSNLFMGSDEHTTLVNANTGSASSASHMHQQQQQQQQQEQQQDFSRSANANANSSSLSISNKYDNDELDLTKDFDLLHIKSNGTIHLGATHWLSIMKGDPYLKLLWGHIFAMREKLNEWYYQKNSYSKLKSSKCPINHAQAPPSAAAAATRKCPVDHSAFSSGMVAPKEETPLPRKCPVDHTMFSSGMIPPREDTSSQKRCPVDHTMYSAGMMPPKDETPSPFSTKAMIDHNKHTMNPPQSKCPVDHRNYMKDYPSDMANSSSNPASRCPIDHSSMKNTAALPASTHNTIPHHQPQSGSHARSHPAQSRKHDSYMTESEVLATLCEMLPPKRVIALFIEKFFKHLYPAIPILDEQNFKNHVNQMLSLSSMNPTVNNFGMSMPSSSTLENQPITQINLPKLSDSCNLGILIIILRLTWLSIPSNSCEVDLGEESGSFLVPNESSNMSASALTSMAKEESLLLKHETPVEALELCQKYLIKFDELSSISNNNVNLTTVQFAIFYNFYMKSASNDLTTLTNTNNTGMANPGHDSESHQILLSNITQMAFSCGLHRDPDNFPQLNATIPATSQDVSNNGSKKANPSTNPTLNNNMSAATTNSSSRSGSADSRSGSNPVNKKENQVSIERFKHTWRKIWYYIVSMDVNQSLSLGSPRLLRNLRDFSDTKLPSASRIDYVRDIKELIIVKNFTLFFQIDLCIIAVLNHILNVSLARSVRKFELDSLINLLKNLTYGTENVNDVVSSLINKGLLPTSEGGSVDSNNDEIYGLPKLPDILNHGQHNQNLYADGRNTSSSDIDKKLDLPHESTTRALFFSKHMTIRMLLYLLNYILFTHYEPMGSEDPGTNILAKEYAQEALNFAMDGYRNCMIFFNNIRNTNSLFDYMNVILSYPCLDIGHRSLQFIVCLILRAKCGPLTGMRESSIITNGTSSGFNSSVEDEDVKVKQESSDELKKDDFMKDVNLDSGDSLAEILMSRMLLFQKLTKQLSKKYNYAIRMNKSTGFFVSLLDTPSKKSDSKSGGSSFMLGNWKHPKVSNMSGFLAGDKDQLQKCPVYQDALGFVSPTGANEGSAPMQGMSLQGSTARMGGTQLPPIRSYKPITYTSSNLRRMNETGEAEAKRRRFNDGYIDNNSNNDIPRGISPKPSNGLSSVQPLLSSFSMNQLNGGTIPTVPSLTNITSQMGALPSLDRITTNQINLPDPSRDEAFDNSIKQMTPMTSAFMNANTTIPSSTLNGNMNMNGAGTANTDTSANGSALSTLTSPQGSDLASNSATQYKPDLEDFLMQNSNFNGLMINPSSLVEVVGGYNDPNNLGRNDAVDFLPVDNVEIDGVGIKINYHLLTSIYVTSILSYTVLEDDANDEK", "experiment": "PBM E-score (8-mer binding enrichment) (E-score (-0.5 to 0.5)); higher = stronger / more preferred TF binding; most listed sequences are background and not binding sites", "conditions": "protein concentration: 200 nM; construct: GST-DNA-binding domain", "how_it_was_run": "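Masliner-normalised scans of fluorescent anti-GST signal were the basis for scoring. That signal came from GST-tagged yeast transcription factors applied at about 100-200 nM to double-stranded universal all-10-mer Agilent arrays on fresh or once-stripped slides. Each ungapped eight-base word, pooled with its reverse complement, received an E-score from the Universal PBM Analysis Suite.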"}
{"sequence": "TCAGCGGA", "PBM E-score": 0.185}
{"sequence": "GTGTGGGA", "PBM E-score": -0.0279}
{"sequence": "CATTCATC", "PBM E-score": -0.09}
{"sequence": "CGAAAACG", "PBM E-score": 0.169}
{"sequence": "CGTTTCAG", "PBM E-score": 0.116}
{"sequence": "AGCATGAG", "PBM E-score": -0.147}
{"sequence": "CATTTACC", "PBM E-score": -0.0349}
{"sequence": "ACGTACCC", "PBM E-score": 0.0098}
{"sequence": "CACAGTCA", "PBM E-score": -0.284}
{"sequence": "GCGCCAGC", "PBM E-score": -0.136}
{"sequence": "AAATGGAT", "PBM E-score": -0.174}
{"sequence": "ACAGGGGG", "PBM E-score": -0.243}
{"sequence": "ATCCCGGA", "PBM E-score": 0.36}
{"sequence": "CAACCAGC", "PBM E-score": -0.0709}
{"sequence": "CGAGTATC", "PBM E-score": 0.129}
{"sequence": "ATCGTGGC", "PBM E-score": -0.216}
{"sequence": "TGCAAAAA", "PBM E-score": -0.155}
{"sequence": "GGGGATTA", "PBM E-score": 0.3}
{"sequence": "ATTTCTCG", "PBM E-score": 0.173}
{"sequence": "CCGGTTGA", "PBM E-score": 0.317}
{"sequence": "GGCTGATA", "PBM E-score": 0.0794}
{"sequence": "AGGAGCGC", "PBM E-score": 0.0362}
{"sequence": "ACGAGCGG", "PBM E-score": 0.161}
{"sequence": "GTACGGAC", "PBM E-score": 0.26}
{"sequence": "GGCTGCCC", "PBM E-score": -0.0614}
{"sequence": "GAATTACC", "PBM E-score": 0.221}
{"sequence": "AGACGACC", "PBM E-score": -0.189}
{"sequence": "AAAGAAAG", "PBM E-score": -0.067}
{"sequence": "GCTAGTCC", "PBM E-score": 0.0704}
{"sequence": "AGCGACCT", "PBM E-score": -0.0522}
{"sequence": "AATTCTCA", "PBM E-score": -0.214}
{"sequence": "AATAGCAT", "PBM E-score": -0.0964}
{"sequence": "AGCTCTGA", "PBM E-score": -0.25}
{"sequence": "AGGGCCGC", "PBM E-score": 0.177}
{"sequence": "ACTTTCGC", "PBM E-score": -0.117}
{"sequence": "AACCAGGT", "PBM E-score": -0.208}
{"sequence": "GAAGTTCA", "PBM E-score": 0.0133}
{"sequence": "AACCGCGC", "PBM E-score": 0.157}
{"sequence": "AGGTGGAG", "PBM E-score": -0.173}
{"sequence": "CGATGCGA", "PBM E-score": 0.126}
{"sequence": "CTAGCTAG", "PBM E-score": -0.341}
{"sequence": "GAAACAAA", "PBM E-score": 0.0047}
{"sequence": "ACCATGGA", "PBM E-score": -0.247}
{"sequence": "GCGTGGAC", "PBM E-score": -0.0334}
{"sequence": "CGTGTCTA", "PBM E-score": -0.0688}
{"sequence": "GCGACGCA", "PBM E-score": -0.14}
{"sequence": "TGTACTAA", "PBM E-score": -0.126}
{"sequence": "ACGCGAAC", "PBM E-score": -0.0222}
{"sequence": "CGAGATAC", "PBM E-score": 0.188}
{"sequence": "GTGGTCAA", "PBM E-score": -0.257}
{"sequence": "GAAATACA", "PBM E-score": -0.109}
{"sequence": "AAGAAGAG", "PBM E-score": -0.141}
{"sequence": "CTCTGGGA", "PBM E-score": -0.133}
{"sequence": "AGTCCACC", "PBM E-score": -0.153}
{"sequence": "AGTGGGCA", "PBM E-score": -0.0283}
{"sequence": "GATCAATA", "PBM E-score": 0.0534}
{"sequence": "CGTCCACG", "PBM E-score": 0.00086}
{"sequence": "CAAGTAGC", "PBM E-score": -0.214}
{"sequence": "ATAATTCG", "PBM E-score": 0.102}
{"sequence": "CGGGCTAC", "PBM E-score": 0.145}
{"sequence": "AGCTTTTA", "PBM E-score": 0.0284}
{"sequence": "CTAACTGA", "PBM E-score": -0.0638}
{"sequence": "TATGAGAA", "PBM E-score": -0.215}
{"sequence": "AGGAACAT", "PBM E-score": -0.241}
{"sequence": "CTCAGCTA", "PBM E-score": -0.214}
{"sequence": "AGAAACTA", "PBM E-score": -0.191}
{"sequence": "CCCCGACA", "PBM E-score": 0.302}
{"sequence": "AATTCCGT", "PBM E-score": 0.414}
{"sequence": "TGAGCACA", "PBM E-score": -0.227}
{"sequence": "CAATTCAC", "PBM E-score": -0.162}
{"sequence": "CCTCACGC", "PBM E-score": -0.207}
{"sequence": "ACGTACCT", "PBM E-score": -0.321}
{"sequence": "ACGCATGA", "PBM E-score": -0.213}
{"sequence": "CGGTGCAA", "PBM E-score": 0.18}
{"sequence": "TGCCGCAA", "PBM E-score": -0.0451}
{"sequence": "CTCACCAG", "PBM E-score": -0.0921}
{"sequence": "ACCAAGTC", "PBM E-score": 0.0115}
{"sequence": "CAGACGGC", "PBM E-score": -0.172}
{"sequence": "GCACAGGC", "PBM E-score": -0.0809}
{"sequence": "CGGGCCGC", "PBM E-score": 0.263}
{"sequence": "AGCAGGCG", "PBM E-score": -0.0396}
{"sequence": "GACGTTGA", "PBM E-score": 0.00492}
{"sequence": "AACATTAG", "PBM E-score": -0.263}
{"sequence": "TACAAAAA", "PBM E-score": -0.133}
{"sequence": "GATATCCA", "PBM E-score": 0.0253}
{"sequence": "ATCAAAAA", "PBM E-score": -0.0323}
{"sequence": "CGTGACTC", "PBM E-score": -0.196}
{"sequence": "CGTCACAC", "PBM E-score": -0.0976}
{"sequence": "CCCTCCAC", "PBM E-score": -0.233}
{"sequence": "CAGCAGGG", "PBM E-score": -0.221}
{"sequence": "ATTACCAG", "PBM E-score": -0.0617}
{"sequence": "ACATCTCA", "PBM E-score": -0.188}
{"sequence": "TTCTAGAA", "PBM E-score": -0.121}
{"sequence": "ACAACTGG", "PBM E-score": 0.101}
{"sequence": "ACGGGTCC", "PBM E-score": 0.266}
{"sequence": "ATAAGACG", "PBM E-score": -0.207}
{"sequence": "ACCGCGCG", "PBM E-score": 0.232}
{"sequence": "TATCCTGA", "PBM E-score": -0.0806}
{"sequence": "TTGAACAA", "PBM E-score": -0.168}
{"sequence": "AAAGTGTA", "PBM E-score": -0.15}
{"sequence": "TCGCTTAA", "PBM E-score": 0.0507}
{"sequence": "AGACCGTA", "PBM E-score": -0.00331}
{"sequence": "CCCGGCAG", "PBM E-score": 0.21}
{"sequence": "CAAGGATC", "PBM E-score": -0.132}
{"sequence": "ACTAGATC", "PBM E-score": -0.129}
{"sequence": "ATGCGTGG", "PBM E-score": -0.22}
{"sequence": "ACCTAACG", "PBM E-score": -0.0717}
{"sequence": "ATCTAAGG", "PBM E-score": -0.189}
{"sequence": "ATCCGTGA", "PBM E-score": 0.271}
{"sequence": "GACCTCGA", "PBM E-score": -0.0256}
{"sequence": "CATGTTTC", "PBM E-score": -0.0181}
{"sequence": "CTCGTAAA", "PBM E-score": -0.0935}
{"sequence": "TGATTGAA", "PBM E-score": -0.126}
{"sequence": "AGGCCCGA", "PBM E-score": 0.279}
{"sequence": "ATTTATCA", "PBM E-score": 0.0206}
{"sequence": "ACGAAAGA", "PBM E-score": -0.148}
{"sequence": "ATGACGCG", "PBM E-score": -0.0356}
{"sequence": "CTCACTTA", "PBM E-score": -0.178}
{"sequence": "CGCCCTAG", "PBM E-score": -0.0467}
{"sequence": "CACGTGGA", "PBM E-score": -0.166}
{"sequence": "AACTGTCC", "PBM E-score": -0.102}
{"sequence": "CACTTAGA", "PBM E-score": -0.054}
{"sequence": "GTAACAGA", "PBM E-score": 0.128}
{"sequence": "CGTTACAA", "PBM E-score": -0.0875}
{"sequence": "GGACTCAA", "PBM E-score": 0.172}
{"sequence": "ATAACGAG", "PBM E-score": -0.151}
{"sequence": "GGAACGCA", "PBM E-score": 0.0123}
{"sequence": "GAGCGGCA", "PBM E-score": 0.118}
{"sequence": "CAAGCCCC", "PBM E-score": 0.0196}
{"sequence": "CAGTGACA", "PBM E-score": -0.253}
{"sequence": "ATATAAAT", "PBM E-score": 0.111}
{"sequence": "AACCCAAA", "PBM E-score": -0.138}
{"sequence": "ACTAGCTG", "PBM E-score": -0.156}
{"sequence": "CCCGCGAC", "PBM E-score": 0.195}
{"sequence": "AGTTAGCG", "PBM E-score": 0.09}
{"sequence": "GGTATACC", "PBM E-score": 0.212}
{"sequence": "CACCGAGC", "PBM E-score": 0.297}
{"sequence": "AGTGTTCC", "PBM E-score": 0.05}
{"sequence": "GGGGACCA", "PBM E-score": -0.153}
{"sequence": "CCATGCAC", "PBM E-score": -0.107}
{"sequence": "ACTTTTCC", "PBM E-score": 0.0901}
{"sequence": "ATAGAGAG", "PBM E-score": -0.249}
{"sequence": "TGTTGCAA", "PBM E-score": 0.0983}
{"sequence": "TATGAGCA", "PBM E-score": -0.146}
{"sequence": "CTTATGAC", "PBM E-score": 0.0491}
{"sequence": "GAATTCGA", "PBM E-score": -0.0583}
{"sequence": "CGTTATTC", "PBM E-score": 0.164}
{"sequence": "AGCATGTA", "PBM E-score": -0.285}
{"sequence": "GCTGAGAA", "PBM E-score": -0.109}
{"sequence": "CAAGCTCA", "PBM E-score": -0.221}
{"sequence": "AGCGGTGG", "PBM E-score": 0.162}
{"sequence": "CGATTATA", "PBM E-score": 0.142}
{"sequence": "AAGTCCTC", "PBM E-score": 0.0366}
{"sequence": "AATCCTGT", "PBM E-score": -0.00559}
{"sequence": "ACCGAGGT", "PBM E-score": 0.29}
{"sequence": "CGAATAAC", "PBM E-score": 0.112}
{"sequence": "GTGTTCAA", "PBM E-score": 0.0233}
{"sequence": "GAGCCAGC", "PBM E-score": -0.124}
{"sequence": "CCTCACCG", "PBM E-score": 0.0689}
{"sequence": "CCCCCGAC", "PBM E-score": 0.336}
{"sequence": "AAAGCGGC", "PBM E-score": 0.0715}
{"sequence": "CTCTCTTA", "PBM E-score": -0.0903}
{"sequence": "CGAAGTTA", "PBM E-score": 0.121}
{"sequence": "ACTTTAAA", "PBM E-score": 0.157}
{"sequence": "AGACGTGG", "PBM E-score": -0.162}
{"sequence": "AGTGCTCA", "PBM E-score": -0.172}
{"sequence": "TATATTAA", "PBM E-score": 0.0308}
{"sequence": "ACTGCGAC", "PBM E-score": 0.122}
{"sequence": "TAACTCGA", "PBM E-score": 0.052}
{"sequence": "CAGTAGCG", "PBM E-score": 0.0723}
{"sequence": "AACTTGTC", "PBM E-score": -0.00823}
{"sequence": "CTAGGTAA", "PBM E-score": -0.271}
